The results in this text go back to PMC545490, “Mapping and mutation of the conserved DNA polymerase interaction motif (DPIM) located in the C-terminal domain of fission yeast DNA polymerase δ subunit Cdc27” (BMC Molecular Biology, 2004).

Chains of the proteins cited; added tags and fusions are not shown. Residues count along the entry.
UniProt P09884, residues 291-540: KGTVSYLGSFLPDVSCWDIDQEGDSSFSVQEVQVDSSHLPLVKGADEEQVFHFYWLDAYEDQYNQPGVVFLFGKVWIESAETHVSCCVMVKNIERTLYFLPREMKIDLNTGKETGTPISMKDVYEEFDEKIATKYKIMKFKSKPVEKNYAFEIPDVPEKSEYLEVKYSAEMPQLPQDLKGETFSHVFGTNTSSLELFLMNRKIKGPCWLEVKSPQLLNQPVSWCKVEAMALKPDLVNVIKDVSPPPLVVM

Experiment [1] addresses T1, Cdc27 co-expressed as bridge in the two-hybrid system (S. pombe) (UniProt P30261).
T1 sequence: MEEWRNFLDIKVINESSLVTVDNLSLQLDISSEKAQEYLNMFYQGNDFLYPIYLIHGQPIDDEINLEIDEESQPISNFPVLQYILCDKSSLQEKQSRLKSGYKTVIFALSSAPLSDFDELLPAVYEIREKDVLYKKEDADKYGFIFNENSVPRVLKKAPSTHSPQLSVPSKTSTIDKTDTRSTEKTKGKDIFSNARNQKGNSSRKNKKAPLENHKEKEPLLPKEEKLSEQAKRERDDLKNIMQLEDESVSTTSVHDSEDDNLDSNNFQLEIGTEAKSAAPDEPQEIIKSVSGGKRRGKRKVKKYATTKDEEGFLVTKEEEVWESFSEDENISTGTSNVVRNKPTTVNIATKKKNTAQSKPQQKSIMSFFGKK
Nature of the experiment: two-hybrid; Gal4 AD-Pcn1 prey and LexA-Pol1(278–527) bait with Cdc27 co-expressed as bridge; β-galactosidase activity.

In experiment [2] the target is LexA fusion of amino acids 291–540 of the human Pol α catalytic subunit (human) (UniProt P09884). Nature of the experiment: two-hybrid; Gal4 AD prey (pACT2) and LexA bait (pBTM116) in S. cerevisiae lexA op-lacZ strain CTY10-5d; β-galactosidase activity in Miller units.
Experiment [3] concerns the target T2, LexA-Pol1-278-527 (S. pombe, UniProt P28040 278-527).
T2 construct: Pol1, catalytic subunit of DNA polymerase α, S. pombe, amino acids 278–527; source: yeast two-hybrid fusion (pBTM116, S. cerevisiae CTY10-5d)
T2 sequence (looked up): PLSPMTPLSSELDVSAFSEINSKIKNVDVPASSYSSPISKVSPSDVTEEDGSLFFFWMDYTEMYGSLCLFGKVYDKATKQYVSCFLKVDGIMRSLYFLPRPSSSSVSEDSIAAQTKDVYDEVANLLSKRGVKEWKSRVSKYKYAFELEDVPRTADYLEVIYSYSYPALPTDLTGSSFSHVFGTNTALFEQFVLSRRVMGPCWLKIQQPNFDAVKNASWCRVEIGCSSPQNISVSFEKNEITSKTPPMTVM
The description is as above.

Experiment [4] concerns the target T2, LexA-Pol1-278-527. Kind of experiment: two-hybrid; Gal4 AD-Pcn1 prey and LexA-Pol1(278–527) bait with Cdc27 co-expressed as bridge; β-galactosidase activity.

Substitutions are numbered along the chain they refer to. These are yes or no findings as the source states them, for the method shown. Some binding calls cover weakened binding; strength is not graded here. For part of these data: Tags and fused reporters may be left off the sequences shown.

B1: Gal4 AD-Pcn1 (protein, UniProt Q03392 1-260)
chain: MLEARFQQAALLKKLLDAIKELVTDANFDCNDNGISLQAMDSSHVALVSMLIKSDGFEPYRCDRNIALGINLNALSKVLRCAQNEDLVTLKAEDTPEVLNLVFESEKNDRISDYDVKLMDIDQEHLGIPDIEYDATITMPAAEFQRITRDLLTLSDSVTINASKEGVRFSCKGDIGNGSTTLKQHTDLSDQDQSIEISLTQAVTLTFSLKYLAQFTKATPLATRVTLSMSNDVPLLVEYKMESGFLRFYLAPKIGEEDEE
On to B1, for which the binding entry in experiment [1] is reported as “binds”.

B2: Gal4 activation domain fusion of the C-terminal 111 amino acids of human p66 (356–466) (domain or fragment, UniProt Q15054 356-466)
chain: SPPLEPVPKTEPEPPSVKSSSGENKRKRKRVLKSKTYLDGEGCIVTEKVYESESCTDSEEELNMKTSSVHRPPAMTVKKEPREERKGPKKGTAALGKANRQVSITGFFQRK
B2: the binding entry (in experiment [2]; with LexA-Pol1-278-527 [3]) was “binds” in each case.

B3: Cdc27 co-expressed as bridge in the two-hybrid system (protein, UniProt P30261 1-372)
chain: T1 sequence
For B3, the binding result in the experiment with LexA-Pol1-278-527 [4] is “binds”.

B4: Gal4 activation domain fusion of the entire C-terminal domain of human p66 (amino acids 253–466) (domain or fragment, UniProt Q15054 253-466)
chain: SEQAVKEEKIVEQPTVSVTEPKLATPAGLKKSSKKAEPVKVLQKEKKRGKRVALSDDETKETENMRKKRRRIKLPESDSSEDEVFPDSPGAYEAESPSPPPPPSPPLEPVPKTEPEPPSVKSSSGENKRKRKRVLKSKTYLDGEGCIVTEKVYESESCTDSEEELNMKTSSVHRPPAMTVKKEPREERKGPKKGTAALGKANRQVSITGFFQRK
Consider B4, for which the binding entry (in experiment [2]; with LexA-Pol1-278-527 [3]) was “binds” each time.
For the molecule GKRRGKRKVKKYATTKDEEGFLVTKEEEVWESFSEDENIS (domain or fragment, UniProt P30261 293-332) [Gal4 AD-Cdc27 (amino acids 293–332)], the binding entry with LexA-Pol1-278-527 [3] is on record as “binds”.

B5: Gal4-Cdc27-273-352 (wild type) (domain or fragment, UniProt P30261 273-352)
chain: TEAKSAAPDEPQEIIKSVSGGKRRGKRKVKKYATTKDEEGFLVTKEEEVWESFSEDENISTGTSNVVRNKPTTVNIATKK
As for B5, the binding result with LexA-Pol1-278-527 [3] was “binds”.

B6: Gal4-Cdc27-273-352-P1 (domain or fragment, UniProt P30261 273-352)
chain: B5 chain with D37A, E38A, E39A
B6: in the experiment with LexA-Pol1-278-527 [3], the binding result is given as “no binding”.

B7: Gal4-Cdc27-273-352-P3 (domain or fragment, UniProt P30261 273-352)
chain: B5 chain with K22A, R23A, R24A
For B7, in the experiment with LexA-Pol1-278-527 [3], the binding entry is recorded as “binds”.

B8: Gal4-Cdc27-273-352-P2 (domain or fragment, UniProt P30261 273-352)
chain: B5 chain with G40A, F41A
With B8, the binding result with LexA-Pol1-278-527 [3] is “no binding”.

B9: Gal4-Cdc27-273-352-Q1 (domain or fragment, UniProt P30261 273-352)
chain: B5 chain with D37A, E38A, E39A, G40A, F41A
Take B9: the binding result with LexA-Pol1-278-527 [3] is “no binding”.

B10: Gal4-Cdc27-273-352-P4 (domain or fragment, UniProt P30261 273-352)
chain: B5 chain with K26A, R27A, K28A
For B10, the binding result with LexA-Pol1-278-527 [3] is reported as “no binding”.

B11: Gal4-Cdc27-273-352-P6 (domain or fragment, UniProt P30261 273-352)
chain: B5 chain with E46A, E47A, E48A
B11: the binding entry with LexA-Pol1-278-527 [3] is given as “no binding”.

B12: Gal4-Cdc27-273-352-P5 (domain or fragment, UniProt P30261 273-352)
chain: B5 chain with K30A, K31A
For the molecule B12, the binding entry in the experiment with LexA-Pol1-278-527 [3] is on record as “binds”.
